“And” between values parts separate entries of the source, which are not always exact repeats. Equal entries are not always repeated. Inconclusive means that the source gave no clear call. Such entries were picked first, then a sample of the others. A potency beside an inconclusive call is a rough fit, not a confirmed value. The source made the active and inactive calls. Calls follow the shape of the dose curve; as a rule, active = well fitted cell-killing curve with a large enough effect in the repeat runs; inconclusive = weak or mixed curves, or effect the other way; inactive = flat fitted curve, though single readings scatter.
Assay: cAMP Responsive Elements (CRE) small molecule antagonists, cell-based qHTS assay: qHTS cell viability counter screen (AID 2060913); also: nearly all actives have a fitted effect of over 40% in size
Conditions: CRE-bla HEK293T viability, CellTiter-Glo luminescence, 5 h; series mostly up to 92.4 µM
Summary of the method: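 Cytotoxicity read in the same wells as the CRE-bla HEK293T antagonist assay: after 3 h compound with 0.25 uM NKH477 final and 2 h beta-lactamase substrate, CellTiter-Glo luminescence measured.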
% is scaled to controls: 0 for no effect and ±100 for the full control effect; potency is read from the fitted curve at half-maximal effect; tags tell the direction and shape of the fitted curve.

Compound	Potency	viability change, negative = cytotoxic
CC1CCc2c(N3CCC(O)CC3)c(F)cc3c(=O)c(C(=O)O)cn1c23 (stereo not given)	inactive	
CCCCNc1c(C(=O)OCC)c(C)nc2c1cnn2CC	inactive	
CCc1ccc(O)c(C(C)(C)C)c1	inconclusive: 61.1 µM [cytotoxic, single point]	
Nc1cccnc1N	inconclusive: 54.5 µM [rising, partial curve]	
O=C1c2c(O)ccc([N+](=O)[O-])c2C(=O)c2c([N+](=O)[O-])ccc(O)c21	active: 27.1 µM	
O=C1CCCC1	inconclusive: 69.6 µM [cytotoxic, single point]	
CC(C(O)c1ccccc1)N(C)CCOC(c1ccccc1)c1ccccc1 (stereo not given)	inconclusive: 29.8 µM [cytotoxic, partial curve, poor fit]	
C#C[C@]1(OC(C)=O)CC[C@H]2[C@@H]3CCC4=C[C@@H](OC(C)=O)CC[C@@H]4[C@H]3CC[C@@]21C	inconclusive: 33.5 µM [cytotoxic, partial curve, poor fit]	
FB(F)F	inactive	
FC(F)(F)c1ccc(Cl)c(Cl)c1	inactive	
CNS(=O)(=O)c1cc(C(=O)N2CCC(CCN3C4CCC3CC(n3c(C)nc5ccccc53)C4)(c3cccc(F)c3)CC2)c(Cl)cc1F (stereo not given)	inactive	
CN(C(=O)CN(CCO)CC(=O)N(C)C(C)(C)Cc1ccccc1)C(C)(C)Cc1ccccc1	inconclusive: 26.6 µM [cytotoxic, partial curve, poor fit]	
CCCCCCCCCCCCS(=O)(=O)Cl		inactive: 11.7% [at 18.9 µM]
CCCCCCCCCCCCCCCCC	inactive	
CC(C)COCC(CN(Cc1ccccc1)c1ccccc1)N1CCCC1 (stereo not given)	active: 29.8 µM	
CC(C)c1ccc(O)c(C(C)C)c1	inconclusive: 48.6 µM [cytotoxic, partial curve]	
CC(N)C(=O)OC(C)(C)Cc1ccc(Cl)cc1 (stereo not given)	inactive	
CCCCCCCCCC(=O)OC	inconclusive: 2.54 µM [cytotoxic, single point]	
CC(C)(C)c1csc(-c2cc3cc(OCc4ccccc4CC(=O)O)ccc3o2)n1	inconclusive: 57 µM [cytotoxic, single point]	
CCCCN(CCCC)C(C(N)=O)c1ccc(OC)cc1 (stereo not given)	inactive	

Compound	Potency	viability change, negative = cytotoxic
CN[C@H]1CC[C@@H](c2ccc(Cl)c(Cl)c2)c2ccccc21	inconclusive: 29.8 µM [cytotoxic, partial curve, poor fit]	
NC(=O)n1c(O)c(C(=O)c2cccs2)c2cc(Cl)ccc21	inconclusive: 23.7 µM [cytotoxic, partial curve, poor fit]	
CN(C)c1ccc2nc3ccc(=[N+](C)C)cc-3sc2c1	inconclusive: 30.6 µM [cytotoxic, full curve, poor fit]	
BrC1CCC(Br)C(Br)CCC(Br)C(Br)CCC1Br (stereo not given)	inconclusive: 54.1 µM [cytotoxic, partial curve, poor fit]	
CN1CCCC1	inactive	
COc1ccc(CCN2CCC(Nc3nc4ccccc4n3Cc3ccc(F)cc3)CC2)cc1	active: 35.1 µM and inconclusive: 29.8 µM [cytotoxic]	
CCCCCCCC/C=C\CCCCCCCC(=O)O	inconclusive: 35.9 µM [cytotoxic, single point]	
CCCOCC(C)O (stereo not given)	inactive	
CC(C)(C)c1ccc(OCC2CO2)cc1 (stereo not given)	inconclusive: 24.8 µM [rising, partial curve, poor fit]	
C(=C\c1ccccc1)/CN1CCN(C(c2ccccc2)c2ccccc2)CC1	inactive	
COC(=O)c1ccc(I)cc1S(=O)(=O)NC(=O)Nc1nc(C)nc(OC)n1	inconclusive: 65.7 µM [cytotoxic, single point]	
C=CC(=O)OCCN(CC)CC	inactive	
NNC(=O)CP(=O)(c1ccccc1)c1ccccc1	inconclusive: 13.3 µM [cytotoxic, single point]	
CCCC(=O)C(CC)Sc1ccoc1C (stereo not given)	inactive	
CCCC(=O)O[C@]1(C(=O)COC(=O)CC)CC[C@H]2[C@@H]3CCC4=CC(=O)CC[C@]4(C)[C@H]3[C@@H](O)C[C@@]21C		inactive: 9.89% [at 18.9 µM]
CCOC(=O)C1OC1c1ccccc1 (stereo not given)	inactive	
O=P(c1ccccc1)(c1ccccc1)c1ccccc1	inactive	
COc1ccc([C@@H]2CC(=O)c3c(O)cc(O[C@@H]4O[C@H](CO[C@@H]5O[C@@H](C)[C@H](O)[C@@H](O)[C@H]5O)[C@@H](O)[C@H](O)[C@H]4O)cc3O2)cc1OC	inconclusive: 1.23 µM [cytotoxic, single point]	
CC/C(=C(/c1ccc(O)cc1)c1ccc(OCCN(C)C)cc1)c1ccccc1	active: 37.6 µM	
Fc1ccccc1[C@@H](F)COC1CCC(Nc2ncnc3[nH]ncc23)CC1 (stereo not given in full)	inconclusive: 68.6 µM [cytotoxic, single point]	

— PubChem BioAssay (Tox21)
